The supplement of paper PMC8728848
This is one part of the list.

Key:
Experiment in all cases: glycan array binding signal (z-score within array); higher = stronger binding
Conditions in all cases: glycan notation: IUPAC condensed, linker removed
[1] = target: Gal(a1-4)Gal(b1-4)GlcNAc(b1-2)Man(a1-3)[Gal(a1-4)Gal(b1-4)GlcNAc(b1-2)Man(a1-6)]Man(b1-4)GlcNAc(b1-4)GlcNAc
How it was run: (§1)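 Glycan array binding is given as a within-array Z-score, which can be read as non-binding when negative. The arrays, 3228 of them, came from the Consortium for Functional Glycomics database and were retained only where the protein sequence was available. Z-scores were averaged across arrays of the same protein sequence at different concentrations or buffers and across linkers.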

[2] = target: Gal(a1-4)Gal(b1-4)GlcNAc(b1-3)Gal(b1-4)Glc
How it was run: as §1

Gal(a1-4)GlcNAc = target: Gal(a1-4)GlcNAc
How it was run: as §1

Gal(a1-6)Glc = target: Gal(a1-6)Glc
How it was run: as §1

Gal(b1-2)Gal = target: Gal(b1-2)Gal
How it was run: as §1

Gal(b1-3)Gal = target: Gal(b1-3)Gal
How it was run: as §1

Gal(b1-3)Gal(b1-4)GlcNAc = target: Gal(b1-3)Gal(b1-4)GlcNAc
How it was run: as §1

[3] = target: Gal(b1-3)Gal(b1-4)GlcNAc(b1-2)Man(a1-3)[Gal(b1-3)Gal(b1-4)GlcNAc(b1-2)Man(a1-6)]Man(b1-4)GlcNAc(b1-4)GlcNAc
How it was run: as §1

Gal(b1-3)GalNAc = target: Gal(b1-3)GalNAc
How it was run: as §1

[4] = target: Gal(b1-3)GalNAc(a1-3)[Fuc(a1-2)]Gal(b1-4)Glc
How it was run: as §1

[5] = target: Gal(b1-3)GalNAc(a1-3)[Fuc(a1-2)]Gal(b1-4)GlcNAc
How it was run: as §1

[6] = target: Gal(b1-3)GalNAc(b1-3)Gal(a1-4)Gal(b1-4)Glc
How it was run: as §1

[7] = target: Gal(b1-3)GalNAc(b1-4)Gal(b1-4)Glc
How it was run: as §1

[8] = target: Gal(b1-3)GalNAc(b1-4)[Neu5Ac(a2-3)]Gal(b1-4)Glc
How it was run: as §1

Gal(b1-3)GlcNAc = target: Gal(b1-3)GlcNAc
How it was run: as §1

[9] = target: Gal(b1-3)GlcNAc(a1-6)Gal(b1-4)GlcNAc
How it was run: as §1

[10] = target: Gal(b1-3)GlcNAc(b1-2)Man(a1-3)[Gal(b1-3)GlcNAc(b1-2)Man(a1-6)]Man(b1-4)GlcNAc(b1-4)GlcNAc
How it was run: as §1

[11] = target: Gal(b1-3)GlcNAc(b1-2)Man(a1-3)[Gal(b1-3)GlcNAc(b1-2)Man(a1-6)]Man(b1-4)GlcNAc(b1-4)[Fuc(a1-6)]GlcNAc
How it was run: as §1

[12] = target: Gal(b1-3)GlcNAc(b1-2)[Gal(b1-3)GlcNAc(b1-6)]Man(a1-6)[Gal(b1-3)GlcNAc(b1-2)Man(a1-3)]Man(b1-4)GlcNAc(b1-4)GlcNAc
How it was run: as §1

[13] = target: Gal(b1-3)GlcNAc(b1-3)Gal(b1-3)GlcNAc
How it was run: as §1

[14] = target: Gal(b1-3)GlcNAc(b1-3)Gal(b1-4)Glc
How it was run: as §1

[15] = target: Gal(b1-3)GlcNAc(b1-3)Gal(b1-4)GlcNAc
How it was run: as §1

[16] = target: Gal(b1-3)GlcNAc(b1-3)Gal(b1-4)GlcNAc(b1-6)[Gal(b1-3)GlcNAc(b1-3)]Gal(b1-4)Glc
How it was run: as §1

[17] = target: Gal(b1-3)GlcNAc(b1-3)Gal(b1-4)[Fuc(a1-3)]GlcNAc(b1-6)[Gal(b1-3)GlcNAc(b1-3)]Gal(b1-4)Glc
How it was run: as §1

[18] = target: Gal(b1-3)GlcNAc(b1-3)GalNAc
How it was run: as §1

[19] = target: Gal(b1-3)GlcNAc(b1-6)Gal(b1-4)GlcNAc
How it was run: as §1

[20] = target: Gal(b1-3)[Fuc(a1-4)]GlcNAc
How it was run: as §1

[21] = target: Gal(b1-3)[Fuc(a1-4)]GlcNAc(b1-2)Man(a1-3)[Gal(b1-3)[Fuc(a1-4)]GlcNAc(b1-2)Man(a1-6)]Man(b1-4)GlcNAc(b1-4)GlcNAc
How it was run: as §1

[22] = target: Gal(b1-3)[Fuc(a1-4)]GlcNAc(b1-2)Man(a1-3)[Gal(b1-3)[Fuc(a1-4)]GlcNAc(b1-2)Man(a1-6)]Man(b1-4)GlcNAc(b1-4)[Fuc(a1-6)]GlcNAc
How it was run: as §1

[23] = target: Gal(b1-3)[Fuc(a1-4)]GlcNAc(b1-3)Gal(b1-3)[Fuc(a1-4)]GlcNAc
How it was run: as §1

[24] = target: Gal(b1-3)[Fuc(a1-4)]GlcNAc(b1-3)Gal(b1-4)GlcNAc
How it was run: as §1

[25] = target: Gal(b1-3)[Fuc(a1-4)]GlcNAc(b1-3)Gal(b1-4)[Fuc(a1-3)]GlcNAc
How it was run: as §1

[26] = target: Gal(b1-3)[GlcNAc(b1-6)]GalNAc
How it was run: as §1

[27] = target: Gal(b1-3)[Neu5Ac(a2-6)]GalNAc
How it was run: as §1

[28] = target: Gal(b1-3)[Neu5Ac(a2-6)]GlcNAc(b1-6)Gal(b1-4)Glc
How it was run: as §1

[29] = target: Gal(b1-3)[Neu5Ac(b2-6)]GalNAc
How it was run: as §1

Gal(b1-4)Gal = target: Gal(b1-4)Gal
How it was run: as §1

[30] = target: Gal(b1-4)GalNAc(a1-3)[Fuc(a1-2)]Gal(b1-4)GlcNAc
How it was run: as §1

[31] = target: Gal(b1-4)GalNAc(b1-3)[Fuc(a1-2)]Gal(b1-4)GlcNAc
How it was run: as §1

Gal(b1-4)Glc = target: Gal(b1-4)Glc
How it was run: as §1

Gal(b1-4)Glc6S = target: Gal(b1-4)Glc6S
How it was run: as §1

Gal(b1-4)GlcNAc = target: Gal(b1-4)GlcNAc
How it was run: as §1

[32] = target: Gal(b1-4)GlcNAc(a1-6)Gal(b1-4)GlcNAc
How it was run: as §1

Gal(b1-4)GlcNAc(b1-2)Man = target: Gal(b1-4)GlcNAc(b1-2)Man
How it was run: as §1

[33] = target: Gal(b1-4)GlcNAc(b1-2)Man(a1-3)Man(b1-4)GlcNAc(b1-4)GlcNAc
How it was run: as §1

B1: 3FTT (Staphylococcus aureus), Q5HCZ5 (protein)
chain: MTEKEKMLAEKWYDANFDQYLINERARAKDICFELNHTRPSATNKRKELIDQLFQTTTDNVSISIPFDTDYGWNVKLGKNVYVNTNCYFMDGGQITIGDNVFIGPNCGFYTATHPLNFHHRNEGFEKAGPIHIGSNTWFGGHVAVLPGVTIGEGSVIGAGSVVTKDIPPHSLAVGNPCKVVRKIDNDLPSETLNDETIK
glycan array binding signal (z-score) [1]: 0.058
glycan array binding signal (z-score) [2]: 0.067
glycan array binding signal (z-score) (Gal(a1-4)GlcNAc): 0.402
glycan array binding signal (z-score) (Gal(a1-6)Glc): -0.157
glycan array binding signal (z-score) (Gal(b1-2)Gal): -0.174
glycan array binding signal (z-score) (Gal(b1-3)Gal): 0.066
glycan array binding signal (z-score) (Gal(b1-3)Gal(b1-4)GlcNAc): 0.256
glycan array binding signal (z-score) [3]: -0.226
glycan array binding signal (z-score) (Gal(b1-3)GalNAc): -0.105
glycan array binding signal (z-score) [4]: -0.232
glycan array binding signal (z-score) [5]: -0.118
glycan array binding signal (z-score) [6]: -0.376
glycan array binding signal (z-score) [7]: -0.104
glycan array binding signal (z-score) [8]: -0.185
glycan array binding signal (z-score) (Gal(b1-3)GlcNAc): -0.004
glycan array binding signal (z-score) [9]: -0.16
glycan array binding signal (z-score) [10]: -0.031
glycan array binding signal (z-score) [11]: -0.172
glycan array binding signal (z-score) [12]: -0.229
glycan array binding signal (z-score) [13]: 0.098
glycan array binding signal (z-score) [14]: -0.018
glycan array binding signal (z-score) [15]: -0.002
glycan array binding signal (z-score) [16]: -0.054
glycan array binding signal (z-score) [17]: -0.201
glycan array binding signal (z-score) [18]: -0.014
glycan array binding signal (z-score) [19]: -0.087
glycan array binding signal (z-score) [20]: -0.131
glycan array binding signal (z-score) [21]: 19.9
glycan array binding signal (z-score) [22]: -0.148
glycan array binding signal (z-score) [23]: 0.019
glycan array binding signal (z-score) [24]: -0.017
glycan array binding signal (z-score) [25]: -0.198
glycan array binding signal (z-score) [26]: -0.192
glycan array binding signal (z-score) [27]: -0.236
glycan array binding signal (z-score) [28]: 0.085
glycan array binding signal (z-score) [29]: -0.136
glycan array binding signal (z-score) (Gal(b1-4)Gal): 0.15
glycan array binding signal (z-score) [30]: -0.017
glycan array binding signal (z-score) [31]: -0.055
glycan array binding signal (z-score) (Gal(b1-4)Glc): -0.098
glycan array binding signal (z-score) (Gal(b1-4)Glc6S): -0.204
glycan array binding signal (z-score) (Gal(b1-4)GlcNAc): -0.074
glycan array binding signal (z-score) [32]: 0.176
glycan array binding signal (z-score) (Gal(b1-4)GlcNAc(b1-2)Man): 0.22
glycan array binding signal (z-score) [33]: 0.088
